“And” between values parts separate entries of the source, which are not always exact repeats. Equal values may be shown once. The campaign covered roughly 16,000 compounds. About 40 (0.2%) were called active. Roughly 1% stayed inconclusive and do not appear here. Calls come from the whole dose curve; as a rule, active = well fitted activation curve with a large enough effect; inconclusive = small, poorly fitted or top-dose-only effect, or another doubt; inactive = no such curve, though single readings can be large or run the other way. This is one part of the list.
target: Rap guanine nucleotide exchange factor 4 (Homo sapiens) (UniProt Q8WZA2); assay: Validation qHTS for agonist of cAMP-regulated guanine nucleotide exchange factor 4 (EPAC2); details: EPAC2 Rap1B BODIPY-GDP exchange, fluorescence; activation: hits give high values;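 note: exchange makes BODIPY-GDP fluorescence drop when released from Rap1B; series mostly up to about 150 µM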
Method in brief: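 Fluorescent exchange assay: 100 nM EPAC2 with 250 nM RAP1B-BODIPY-GDP and 50 uM GDP; compound added, 5 min at room temperature, then read (ex 480/em 540 nm) every 5 min for 30 min. Normalized to 6.5 mM cAMP agonist control.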
% is set by controls: 0 for no effect and ±100 for the full control effect.

Sequence of UniProt Q8WZA2 (Q8WZA2 whole entry, looked up): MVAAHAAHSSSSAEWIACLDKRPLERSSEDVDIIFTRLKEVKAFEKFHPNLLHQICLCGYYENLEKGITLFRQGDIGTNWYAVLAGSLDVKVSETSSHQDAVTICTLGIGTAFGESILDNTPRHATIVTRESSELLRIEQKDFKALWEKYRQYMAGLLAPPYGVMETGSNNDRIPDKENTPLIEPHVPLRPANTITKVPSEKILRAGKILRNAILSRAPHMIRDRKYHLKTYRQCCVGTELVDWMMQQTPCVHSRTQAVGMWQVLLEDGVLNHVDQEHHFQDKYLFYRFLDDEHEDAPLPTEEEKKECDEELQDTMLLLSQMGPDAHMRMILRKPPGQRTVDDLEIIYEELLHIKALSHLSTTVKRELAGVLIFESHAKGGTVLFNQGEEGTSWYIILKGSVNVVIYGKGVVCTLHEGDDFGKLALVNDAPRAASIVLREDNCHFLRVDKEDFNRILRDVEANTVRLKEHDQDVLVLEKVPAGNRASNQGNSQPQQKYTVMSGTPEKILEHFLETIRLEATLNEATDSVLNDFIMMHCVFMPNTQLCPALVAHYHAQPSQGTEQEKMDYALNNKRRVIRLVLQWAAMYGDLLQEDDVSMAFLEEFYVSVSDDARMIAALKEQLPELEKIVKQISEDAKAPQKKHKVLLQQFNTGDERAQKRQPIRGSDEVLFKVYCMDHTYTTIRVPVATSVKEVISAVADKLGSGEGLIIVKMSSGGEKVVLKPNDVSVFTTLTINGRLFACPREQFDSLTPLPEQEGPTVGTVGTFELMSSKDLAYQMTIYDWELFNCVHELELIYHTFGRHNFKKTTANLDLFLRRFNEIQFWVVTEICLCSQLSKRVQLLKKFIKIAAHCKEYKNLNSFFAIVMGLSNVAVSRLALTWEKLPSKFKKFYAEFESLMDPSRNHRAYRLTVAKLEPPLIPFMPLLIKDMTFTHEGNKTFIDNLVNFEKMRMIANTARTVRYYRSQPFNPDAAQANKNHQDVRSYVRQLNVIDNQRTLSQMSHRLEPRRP

activation, inactive:
COc1ccccc1-c1cncnc1NCc1ccccc1 -2.03%
O=C(NCC1Cc2cccc(-c3ncccn3)c2O1)c1cccc(-c2ccccc2F)c1 (stereo unspecified) 4.82%
CN(C)c1nc(-c2cccc(C#N)c2)nc2ccccc12 -2.4%
C[C@@H](N)C1CCC(C(=O)Nc2ccncc2)CC1 (stereo partly specified) -3.91% and 13.2% and 0.418%
NCC(O)(CS(=O)(=O)O)c1ccc(Cl)cc1 (stereo unspecified) -33.9%
CC[C@H](NC(=O)c1c(C)c(-c2ccccc2)nc2ccccc12)c1ccccc1 4.43% and -8.45% and -47.6%
CCOC(=O)c1ncn2c1CN(C)C(=O)c1cc(F)ccc1-2 -0.286% and -17.7% and -12.1%
O=NN(CCCl)C(=O)NCCCl -5.2% and 1.4% and -13.7%
CC(C)(S)C(=O)N[C@@H](CS)C(=O)O -18% and 4.24%
COc1ncc2nc(C)c(=O)n(Cc3cccs3)c2n1 -6.26%
COc1cc(=O)n2c(c1C(=O)NCc1nonc1C)CCN(C(=O)c1cccc(C)c1C)CC2 5.01%
COc1ccc(-c2oc3ccc(C)cc3c(=O)c2O)cc1OC -7.8%
CC(=O)OC1C[C@]2(C)[C@@H](CC(O)C3[C@]4(C)CCC(O)C(C)[C@@H]4CC[C@]32C)/C1=C(/CCC=C(C)C)C(=O)O (stereo partly specified) -17.1%
CCNc1ncc2nc(-c3cn(C)c4ccccc34)c(=O)n(Cc3ccc(F)cc3)c2n1 -13.2%
Cc1cc(C)c(NC(=O)CN(CC(=O)O)CC(=O)O)c(C)c1Br -0.749%
O=C(c1csnn1)N1CCC2(CC1)CN(c1ccccc1)C2 -10.6%
COc1ccc(-c2c(-c3ccc4c(c3)OCO4)noc2C)cn1 -22.9%
CO/S(=N\S(=O)(=O)c1ccc(Cl)cc1)c1ccc([N+](=O)[O-])cc1 (stereo unspecified) 5.91%
CC1=C(/C=C/C(C)=C/C=C/C(C)=C/C=C/C=C(C)/C=C/C=C(C)/C=C/C2=C(C)C(=O)CCC2(C)C)C(C)(C)CCC1=O -24.4%
C=C1CC[C@H](O)C/C1=C/C=C1\CCC[C@]2(C)C([C@H](C)CCCC(C)(C)O)CC[C@@H]12 (stereo partly specified) 2.4% and 3.18%
CCC1CN(CCNC(=O)c2ccccc2-n2cccn2)Cc2cc(OC)ccc2O1 (stereo unspecified) -6.64%
Cc1ccc(CN2C[C@@H](Sc3nc(C)cc(C)n3)C[C@H]2C(=O)N2CCN(c3ccccc3F)CC2)cc1 -9.71%
COc1ccc(CN2[C@@H](CC(=O)O)c3cc(C(F)(F)F)ccc3S2(=O)=O)cc1 -8.71%
CO[C@H]1C=CO[C@@]2(C)Oc3c(C)c(O)c4c(O)c(cc(O)c4c3C2=O)NC(=O)/C(C)=C\C=C/[C@H](C)[C@H](O)[C@@H](C)[C@@H](O)[C@@H](C)[C@H](OC(C)=O)[C@@H]1C -0.0671%
CCOC(=O)C1CCCCN1Cc1nc(N2CCN(C(C)=O)CC2)c2ccccc2n1 (stereo unspecified) 5.23%
CC1(C)CC23C(=O)CCC(O)C2(C)CCC13 (stereo unspecified) -8.77%
Cc1nc(C)c(CC(=O)N2CCOc3ccc(CN4CCN(c5ccccn5)CC4)cc3C2)s1 -8.44%
Cc1cc(OCCOCC[N+](C)(C)Cc2ccccc2)ccc1C(C)(C)CC(C)(C)C -23.6%
COc1cccc(-c2ccc3ncnc(NCCNC(C)=O)c3c2)c1 -3.87%
Cc1nc2cnc(Nc3ccccc3)nc2n(CCc2ccccc2)c1=O 0.853%
COc1cc2c(cc1OC)C(c1ccccc1)=NCC2 -3.15%
Nc1ccnc2c1ncn2[C@@H]1O[C@H](CO)[C@@H](O)[C@H]1O 4.96%
COc1cc(/C=C/CN2CCOc3ccc(C(O)c4cccnc4)cc3C2)ccc1O (stereo unspecified) -6.15%
COc1ccccc1-c1cc(Nc2ccn[nH]2)ncn1 -16.4%
COc1ccc2c(c1)CCc1cnc(-n3ncc(C(=O)N(C)CCc4ccccn4)c3C)nc1-2 -7.59%
N#Cc1cccc(-c2ccc3ncnc(NCc4cccs4)c3c2)c1 -7.54%
COc1cc(=O)n2c(c1C(=O)N(C)Cc1ccsc1)CCN(Cc1c(C)nc3sccn13)CC2 -1.8%
CCOc1cc(CC(=O)N[C@@H](CC(C)C)c2ccccc2N2CCCCC2)ccc1C(=O)O -1.46%
COc1cc2c(cc1OC)C1(O)C(=O)c3ccc(O)c(C(=O)O)c3OC1CO2 (stereo unspecified) -15%
COc1ccc(C(=O)NCC2Cc3cc(C)cc(-c4cc(C(C)=O)ccc4F)c3O2)c(OC)c1OC (stereo unspecified) -16.9%
c1cncc(-c2nc(NCCN3CCOCC3)c3ccccc3n2)c1 -19.1%
CC1(O)/C=C\C=C(\CO)C2CC(C)(C)C2(O)CC1 (stereo unspecified) -14.6%
CCC(C(N)=O)c1ccccc1 (stereo unspecified) 3.55%
O=c1c(-c2ccc(Cl)cc2)nc2cnc(N3CCNCC3)nc2n1-c1ccccc1 -9.17%
CC(=O)N[C@@H](C)C(=O)NCC1Cc2cccc(-c3ccccc3C(F)(F)F)c2O1 (stereo partly specified) -4.97%
CC(=O)OC1CC2C(C)(C)C=CC(=O)[C@@]2(C)C2CC[C@@]3(C)C(c4ccoc4)OC(=O)C4OC43[C@]12C (stereo partly specified) -30.8%
CCNc1ncc2nc(-c3ccccc3)c(=O)n(-c3ccc(OC)cc3)c2n1 -13%
Cc1ccccc1C1(CC(=O)N2CCCCC2c2cccnc2)CC(=O)N(C2CCCC2)C1=O (stereo unspecified) -17.2%
C=CCCCCCCCCCCCC(O)CC(O)COC(C)=O (stereo unspecified) (tested in a mixture with another compound) -51%
O=C(O)c1ccc(OCCn2ccnc2)cc1 -23.5%
COc1ccc(CNC(=O)C[C@H]2C(=O)N(Cc3ccc(OC)cc3)C[C@@H]2Cc2ccccc2)cc1 -16.8%
NC(CCCP(=O)(O)O)C(=O)O (stereo unspecified) 11.7%
O=C(O)COc1ccc(CCNS(=O)(=O)c2ccccc2)s1 2.15%
CCCS(=O)(=O)NCc1c(C)ncc2c1CCN(C(=O)c1ccc(F)c(F)c1)C2 -5.94%
COc1cc(-c2cc(C)c3cccc(OC)c3n2)cc2c1OCCN(C(=O)CCn1ccc(C)n1)C2 -12.7%
COCCn1c(=O)cnc2cnc(OCc3ccccc3)nc21 -12.6%
O=c1c(-c2cccs2)nc2cncnc2n1-c1ccccc1 -19.8%
C#C[C@]1(O)CC[C@H]2[C@@H]3CCc4cc(O)ccc4[C@H]3CC[C@@]21C -32.1%
CCCCN(CCCC)CCC(O)c1cc2c(Cl)cc(Cl)cc2c2cc(C(F)(F)F)ccc12 (stereo unspecified) -6.66%
[O]=[Bi][O]C(=O)[O][Bi]=[O] -24.7%
Cc1occc(=O)c1O -3.85%
COc1cccc(C=NC=Nc2cccc(OC)c2)c1 10.1%
C[N+](C)(CCCCCC[N+](C)(C)CCCN1C(=O)c2cccc3cccc(c23)C1=O)CCCN1C(=O)c2cccc3cccc(c23)C1=O -53.8%
C[C@H](NC[C@H](O)CP(=O)(O)CC1CCCCC1)c1ccc(Cl)c(Cl)c1 -12.9% and -5.46%
CC(C)=CC1C(CO)C1(C)C (stereo unspecified) -1.61%
CC(C)n1cnc2c(NCc3ccccc3)nc(NCCO)nc21 3.46%
Nc1nc2c(ncn2COCCO)c(=O)[nH]1 -7.27% and 3.82% and -11.9%
CN(C)c1nc(-c2cccc(NS(C)(=O)=O)c2)nc2ccccc12 0.3%
COC(=O)C1=C(C(=O)OC)[C@]2([C@H]3C/C=C\CN[C@@H](Cc4ccccc4)C(=O)N3Cc3ccccc3)C=C[C@H]1O2 -9.39%
O=Nc1ccc(/C=C/c2ccnc3ccccc23)cc1 -6.53%
NC(=O)n1c(O)c(C(=O)c2cccs2)c2cc(Cl)ccc21 -20.6%
COCC(=O)N1CCC2(CC1)CCN(c1ccc(-c3ccccc3)cc1)CC2 -15.6%
CCN(CC)c1ccc(N=Nc2ccc(S(=O)(=O)N(C)C)cc2)c(S(=O)(=O)NCC[n+]2ccccc2)c1 -34.1%
COC(=O)c1ccccc1-c1cc(C)cc2c1OC(CNC(=O)C1CCOC1)C2 (stereo unspecified) 2.27%
Cc1cc(NC2CCCCC2)nc(-n2nc(C)cc2C)n1 -23.5%
NCCSSCCN 1.32% and -27.5%
CC(C)CN1CCC(=O)N([C@H](CSc2ccccc2)Cc2ccccc2)CC1 -11.2%
CC(C)NCC(O)c1ccc(O)c(O)c1 (stereo unspecified) -16.8% and 1.61% and -17%
Nc1ccc(O)cc1 25.8% and 23.8%
CC1CCC2(OC1)OC1CC3C4CC[C@@H]5CC(O)CC[C@@]5(C)C4CC(=O)[C@]3(C)C1C2C (stereo partly specified) 0.518%
CC(C)(C)NC(=O)[C@@H]1C[C@@H]2CCCC[C@@H]2CN1C[C@@H](O)[C@H](Cc1ccccc1)NC(=O)[C@H](CC(N)=O)NC(=O)c1ccc2ccccc2n1 -37.2%

Reference: PubChem BioAssay AID1645887 (National Center for Advancing Translational Sciences (NCATS), 2021)
